Source: ChEMBL document CHEMBL1201862, “PubChem BioAssay data set” (2004)
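96-well plates; 48 h exposure; 5 concentrations. Endpoints by linear interpolation between flanking doses. Not reached: highest tested concentration assigned. Abbreviation: GI50, concentration required for 50% inhibition of growth.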 The source made the active and inactive calls. Rule as the data show it: active = GI50 up to about 1.1 µM and inactive = higher.

These compounds were tested on NCI-H322M (assay: growth of human tumour cells (NCI), 48 h).

SMILES	GI50
O=C1Nc2ccc(Br)cc2/C1=N/N1C(=O)C(=O)N(C2CCCCC2)C1=S	inactive: 6.76 µM
Cc1n[nH]c(=O)n1-n1cccc1	inactive: > 100 µM
COc1ccc2ccccc2c1CN1CCOCCOCCN(Cc2c(OC)ccc3ccccc23)CCOCCOCC1	inactive: > 71.6 µM
NN1C(=O)C(CCO)S/C1=N/N=C1/SC(CCO)C(=O)N1N (stereo unspecified)	inactive: > 100 µM
COC(=O)C1CC(c2ccc(Cl)cc2)=NO1 (stereo unspecified)	inactive: > 100 µM
O=C(C#Cc1cnc(O)nc1O)c1ccccc1Cl	inactive: 58.5 µM
O=c1oc2ccccc2c(Nc2ccc3c(c2)Oc2ccccc2O3)c1[N+](=O)[O-]	inactive: 29.9 µM
CC#N.O[C@@H]1CCCC[C@H]1O.O[C@@H]1CCCC[C@H]1O.[TeH2]	inactive: > 100 µM
CC(C)(C)OC(=O)[C@@H]1CCC(=O)N1C1(c2ccccc2)c2ccccc2-c2ccccc21	inactive: 49 µM
O=C1CCCc2cc3c(cc21)CCC3C(=O)O (stereo unspecified)	inactive: > 100 µM
CC#CCOC(=O)c1ccccc1OC(C)=O	inactive: > 100 µM
N#Cc1nc(-c2cccnc2)oc1N	inactive: > 100 µM
CC(=O)CCNc1ccc(-c2cc(-c3ccc(N(C)C)cc3)nc3ccc4ccccc4c23)cc1	inactive: > 100 µM
CC1(C)OC2C(CO)OC(n3ccc(=O)[nH]c3=O)C2O1 (stereo unspecified)	inactive: > 100 µM
Nc1ncnc2c1ncn2C1C=CC(COS(N)(=O)=O)C1 (stereo unspecified)	inactive: > 100 µM
COc1cc(C(c2cccc3ccccc23)N2C(=O)CCC2C(=O)NCc2ccccc2)cc(OC)c1OC (stereo unspecified)	inactive: > 100 µM
COc1cc(OC)c(SSCCCCS(=O)O)c(OC)c1	inactive: 18.7 µM
COc1ccc2c(c1)-c1nn(CCCN(C)C)c3ccc([N+](=O)[O-])c(c13)N2 [PYRAZOLOACRIDINE]	active: 0.277 µM
CCOC(=O)C(C(=O)OCC)C(NC(=O)Nc1cc(C(F)(F)F)ccc1OC)(C(F)(F)F)C(F)(F)F	inactive: 26.7 µM
C=C1C(=O)OC2CC(C)C3C4OC4C(O)C3(C)C(O)C12 (stereo unspecified)	inactive: 35.7 µM
NS(=O)(=O)c1ccc(/N=N/c2nc3nc(O)nc(O)c3[nH]2)cc1	inactive: > 100 µM
CCOc1ccc(/N=C\c2cc(OC)c(OC)c(OC)c2)cc1	inactive: > 100 µM
O=C1[C@H]2ON(c3ccccc3)C(c3ccccc3F)[C@H]2C(=O)N1c1ccc(Cc2ccc(N3C(=O)[C@@H]4ON(c5ccccc5)C(c5ccccc5F)[C@@H]4C3=O)cc2)cc1 (stereo partly specified)	inactive: > 100 µM

SMILES	GI50
O=C(CC(=O)C1=CNc2ccccc2S1)C(=O)Nc1ccc(Cl)cc1	inactive: > 50 µM
CCOC(=O)CNc1c(OCc2ccccc2)c(=O)c1=O	inactive: > 100 µM
CC(ON1[C@](C)(c2ccccc2)CC[C@@]1(C)c1ccccc1)c1ccccc1 (stereo partly specified)	inactive: 45 µM
C/C1=C/C(C)CC(C)OC(=O)C(C)NC(=O)C(Cc2ccc(O)c(I)c2)N(C)C(=O)C(C)NC(=O)C(C)C1 (stereo unspecified)	inactive: 1.9 µM
CN1C(=O)CC2CCC(=O)N2c2cccnc21 (stereo unspecified)	inactive: > 100 µM
c1cc2nnnn2nc1N1CCCC1	inactive: > 100 µM
O=S(=O)(/C=C/C(=C/c1ccccc1)S(=O)(=O)c1ccccc1)c1ccccc1	inactive: 1.84 µM
O=c1c(C(c2ccco2)c2c(O)oc3ccccc3c2=O)c(O)oc2ccccc12	inactive: > 100 µM
CC1=C(C(=O)O)N2C(=O)[C@@H](NC(=O)C(c3ccc(O)cc3)N3CSC(=S)N(C(C)C)C3)C2SC1 (stereo partly specified)	inactive: > 100 µM
CCN1CCN(c2ccc(Nc3ccnc4ccc5nn(C)nc5c34)cc2)CC1	inactive: 12.1 µM
O=C(CC(=O)c1ccccc1NC1=Cc2ccccc2C(=O)C1=O)C(=O)NC1=C(Cl)C(=O)c2ccccc2C1=O	inactive: 9.04 µM
Cn1c(=O)c2c(no[n+]2[O-])n(C)c1=O	inactive: > 100 µM
CCN/C(=N\Nc1ccc([N+](=O)[O-])cc1)P(=O)(OC(C)C)OC(C)C	inactive: > 100 µM
O=c1c2c(-c3ccccc3)onc2n(-c2ccccc2)c(=O)n1-c1ccccc1	inactive: > 100 µM
N#Cc1c(NC(=O)C(F)(F)F)sc2c3c(=O)c4ccccc4c(=O)c=3oc3ccccc3c12	inactive: 19.5 µM
O=S(=O)(O)c1ccc(-c2c3nc(c(-c4ccc(S(=O)(=O)O)cc4)c4ccc([nH]4)c(-c4ccc(S(=O)(=O)O)cc4)c4nc(c(-c5ccc(S(=O)(=O)O)cc5)c5ccc2[nH]5)C=C4)C=C3)cc1	inactive: 17.7 µM
O=c1c2cc(I)ccc2nc(-c2cccs2)n1/N=C/c1ccccc1	inactive: > 100 µM
O=C(N/N=C\C(F)(F)F)c1ccncc1	inactive: 37.8 µM
CC(C)=CCC[C@@H](C)C1=CC(=O)C(C)=C(O)C1=O [ISOPEREZONE]	inactive: 13 µM
O=C1C(c2ccccc2)=[N+]([O-])c2ccccc21	inactive: 16.7 µM
Cc1nnc(N/N=C(/C(=O)C(C#N)c2ccccc2)C(C#N)c2ccccc2)n1N (stereo unspecified)	inactive: 15.1 µM
COC(=O)c1ccc(/C=C/S(=O)(=O)c2ccccc2)cc1	inactive: > 100 µM
O=C(NCCCl)O/N=C/c1cccnc1	inactive: > 100 µM

SMILES	GI50
CCCCSc1nsc(N(C(=O)c2ccccc2)C(=O)c2ccccc2)n1	inactive: 35.6 µM
Nc1nc(N)c2ncn(Cc3ccccc3CCl)c2n1	inactive: > 100 µM
O=[N+]([O-])c1ccc(Oc2c(Cl)cc(S(=O)(=O)N/C(=N\O)Nc3ccc(Cl)cc3)cc2Cl)cc1	inactive: 10.5 µM
CC(=O)O[C@H]1C(=O)[C@@]2(C)[C@H]([C@H](OC(=O)c3ccccc3)[C@]3(O)C[C@H](OC(=O)[C@H](O)[C@@H](NC(=O)CC(C)(C)C)c4ccccc4)C(C)=C1C3(C)C)C1(OC(C)=O)CO[C@@H]1C[C@@H]2O (stereo partly specified)	active: 0.0169 µM
COC(=O)C1=C(OC(=O)/C(=C/c2ccccc2)c2ccc(Cl)cc2Cl)C(C(=O)OC)[C@@]2(O)[C@@H](C(=O)OC)[C@H](C)C[C@@H]1[C@@H]2C(=O)OC (stereo partly specified)	inactive: > 100 µM
C=C1C(=O)O[C@@H]2C[C@@]3(C)CC(=O)C=C(C)[C@@H]3C[C@H]12	inactive: 42.7 µM
O=C(O)C1=C(C(=O)Nc2ccccc2)C2C=CC1C2 (stereo unspecified)	inactive: > 100 µM
O=NN(CCF)C(=O)NC1CCSCC1	inactive: > 100 µM
N/C(S)=N/N=C/c1ncccc1O	inactive: 2.97 µM
Cc1ccc(NC(=O)NC23CC4CC(CC(F)(C4)C2)C3)cc1	inactive: > 100 µM
c1ccc(-c2nnc3nn4c(-c5ccccc5)cnnc4c3c2-c2ccccc2)cc1	inactive: > 100 µM
O=C1C=CC2(O[C@H](c3ccccc3)[C@@H](c3ccccc3)O2)[C@H](Sc2ccccc2O)C1	inactive: 3.85 µM
CNc1c2c(c3nc4ccccc4c4c3c1N=C4)NCCC2=O [PLAKINIDINE A]	inactive: 4.06 µM
CC(C)C(Br)CC/C(CBr)=C(\Cl)CCl (stereo unspecified)	inactive: 14.7 µM
O=C1c2ccccc2C(=O)N1c1ccc(Cc2ccc(N3C(=O)c4ccccc4C3=O)cc2)cc1	inactive: > 100 µM
O=C(O)C(Cc1c[nH]c2ccccc12)N1C(=O)c2ccccc2C1=O (stereo unspecified)	inactive: > 100 µM
COC(=O)CN1c2nc(C#N)c(C#N)nc2N(CC(=O)OC)c2nc(C#N)c(C#N)nc21	inactive: 14.9 µM
N#CC1C(=O)NC(=O)C1=O (stereo unspecified)	inactive: > 100 µM
O=S(=O)(Nc1nccs1)c1ccc(Nc2nc(-c3cccs3)nc3ccc(I)cc23)cc1	inactive: 14.6 µM
O=C(Nc1ccc([N+](=O)[O-])cc1[N+](=O)[O-])C(=O)C(C(=O)c1ccc(Cl)c(Cl)c1)C1OC(=O)c2ccccc21 (stereo unspecified)	inactive: 27 µM
O=C1c2ccccc2C(=O)c2c1ccc1conc21	inactive: 12 µM
CN(CC(N)=O)C(=O)N(CCCl)N=O [SARCNU]	inactive: > 100 µM
CCCCCCCCCCCCCCCCCCNc1ccn(C2OC(CO)C(O)C2O)c(=O)n1 (stereo unspecified)	inactive: > 100 µM

SMILES	GI50
FC(F)(F)C1(Cl)C(Cl)(c2ccccc2)C1(Cl)c1ccccc1 (stereo unspecified)	inactive: 17.1 µM
N#Cc1c(N)c(-c2ccc(Cl)cc2)c(F)c2ccccc12	inactive: > 100 µM
CC1OC(OC2CC(O)(C(=O)CO)Cc3c(O)c4c(c(O)c32)C(=O)c2ccccc2C4=O)CC(N)C1O (stereo unspecified)	active: 0.0962 µM
NCCP(=O)(O)O	inactive: > 100 µM
COCn1cnc2c(=O)nc(SC)n(-c3ccccc3)c21	inactive: > 100 µM
Oc1nc(CC(O)c2ccc(Cl)c(Cl)c2)cc(-c2ccccc2)n1 (stereo unspecified)	inactive: 72.6 µM
CC(C)(C)/C(O)=C\c1nc2cc(C(F)(F)F)ccc2[nH]c1=O	inactive: > 100 µM
COC(=O)CC[N+]1=CCC(c2ccccc2)(c2ccccc2)O1	inactive: > 100 µM
CCCCC(=O)OC[n+]1ccc(-c2c(COC(=O)NC(C)C)c(COC(=O)NC(C)C)c3n2CCC3)cc1	inactive: > 100 µM
N/N=C1\C(=O)N(Cc2ccccc2)C(=O)C1C(=O)NCc1ccccc1 (stereo unspecified)	inactive: > 100 µM
[N-]=[N+]=NCC1OCC(O)C(OCc2ccccc2)C1OCc1ccccc1 (stereo unspecified)	inactive: > 100 µM
CN(C)C1(N(C)C)Oc2c(c(=O)n(C)c(=O)n2C)C(c2ccc(C(F)(F)F)cc2)C1(F)F (stereo unspecified)	inactive: > 100 µM
N#CC(Cc1ccccc1)N(CCC1=CCCCC1)Cc1ccccc1 (stereo unspecified)	inactive: > 100 µM
O=S1(=O)c2ccccc2-c2nccc3ccnc1c23	inactive: 28.8 µM
CCCN1C(=O)CCC2=C1CCc1c2ccc(Cl)c1Cl	inactive: 31.7 µM
CS(=O)(=O)c1nc(-c2cc3c(c(S(C)(=O)=O)n2)CCCC3)cc2c1CCCC2	inactive: > 100 µM
CC(C)=CC(=O)CC(=O)C(=O)Nc1ccc(Cl)c(Cl)c1	inactive: > 100 µM
c1ccc(C2N=NN(c3ccccc3)C2N2CCCCC2)cc1 (stereo unspecified)	inactive: > 100 µM
O=C(N/N=C1\CCc2ccccc2C1)N/N=C1\CCc2ccccc2C1	inactive: > 10 µM
COc1ccc2c(c1[N+](=O)[O-])CC[C@@H]1[C@@H]2CC[C@]2(C)C(=O)CC[C@@H]12	inactive: > 25 µM
CN(C)CC(C)(C)C(=O)/C=C/c1ccccc1	inactive: 14.3 µM
CSc1nc(NC2OC(COC(C)=O)C(OC(C)=O)C(OC(C)=O)C2OC(C)=O)c2c(n1)OCC2=O (stereo unspecified)	inactive: > 100 µM
